# This is one part of the list.
# B1: MGL2 (Mus musculus), Q8JZN1 (protein)
# chain: MTMRYENFQNLEREEKNQEMRNGDKKGGMESPKFALIPSQSFLWRILSWTHLLLFSLGLSLLLLVVISVIGSQNSQLRRDLGTLRAILDNTTSKIKAEFQSLDSRADNFEKGISSLKVDVEDHRQELQAGRDLSQKVTSLESTLEKREQALKTDLSDLTDHVQQLETDLKALTCQLANLKNNGSEVACCPLHWTEHEGSCYWFSESEKSWPEADKYCRLENSHLVVVNSLEEQNFLQNRLANVLSWMGLTDQNGPWRWVDGTDFDKGFKNWRPLQPDNWHGHMLGGGEDCAHFSYDGRWNDDVCQRHYHWICETELGKASSAHSPQLIASVP
# Experiments:
# Experiment in all cases: glycan array binding signal (z-score within array); higher = stronger binding
# Conditions in all cases: glycan notation: IUPAC condensed, linker removed
# [1] = biological target: GlcNAc(b1-4)GlcNAc(b1-4)GlcNAc(b1-4)GlcNAc(b1-4)GlcNAc
# Method in brief: (§1)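 Glycan array data came from 3228 arrays in the Consortium for Functional Glycomics database, and only arrays with an available protein sequence were kept. Glycan names were put into IUPAC-condensed notation, and columns mapping to the same glycan were averaged. The binding signal is a within-array Z-score, averaged across arrays of one protein sequence run at different concentrations or buffers and across linkers. A negative Z-score can be read as non-binding.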
# [2] = biological target: GlcNAc(b1-4)GlcNAc(b1-4)GlcNAc(b1-4)GlcNAc(b1-4)GlcNAc(b1-4)GlcNAc
# Method in brief: as §1
# [3] = biological target: GlcNAc(b1-4)[GlcNAc(b1-6)]GalNAc
# Method in brief: as §1
# [4] = biological target: GlcNAc(b1-6)Gal(b1-4)GlcNAc
# Method in brief: as §1
# [5] = biological target: GlcNAc(b1-6)GalNAc
# Method in brief: as §1
# [6] = biological target: GlcNAc6S(b1-3)Gal(b1-4)GlcNAc
# Method in brief: as §1
# [7] = biological target: Kdn(a2-3)Gal(b1-3)GalNAc
# Method in brief: as §1
# [8] = biological target: Kdn(a2-3)Gal(b1-3)GlcNAc
# Method in brief: as §1
# [9] = biological target: Kdn(a2-3)Gal(b1-4)Glc
# Method in brief: as §1
# [10] = biological target: Kdn(a2-3)Gal(b1-4)GlcNAc
# Method in brief: as §1
# [11] = biological target: Kdn(a2-3)Gal(b1-4)[Fuc(a1-3)]GlcNAc
# Method in brief: as §1
# [12] = biological target: Kdn(a2-6)Gal(b1-4)GlcNAc
# Method in brief: as §1
# [13] = biological target: Man(a1-2)Man(a1-2)Man(a1-3)Man
# Method in brief: as §1
# [14] = biological target: Man(a1-2)Man(a1-2)Man(a1-6)[Man(a1-3)]Man
# Method in brief: as §1
# [15] = biological target: Man(a1-2)Man(a1-3)Man
# Method in brief: as §1
# [16] = biological target: Man(a1-2)Man(a1-3)[Man(a1-2)Man(a1-6)]Man
# Method in brief: as §1
# [17] = biological target: Man(a1-2)Man(a1-3)[Man(a1-2)Man(a1-6)]Man(a1-6)[Man(a1-2)Man(a1-2)Man(a1-3)]Man
# Method in brief: as §1
# [18] = biological target: Man(a1-2)Man(a1-3)[Man(a1-2)Man(a1-6)]Man(a1-6)[Man(a1-2)Man(a1-2)Man(a1-3)]Man(b1-4)GlcNAc(b1-4)GlcNAc
# Method in brief: as §1
# [19] = biological target: Man(a1-2)Man(a1-3)[Man(a1-6)]Man(a1-6)[Man(a1-2)Man(a1-3)]Man(b1-4)GlcNAc(b1-4)GlcNAc
# Method in brief: as §1
# [20] = biological target: Man(a1-2)Man(a1-6)[Man(a1-3)]Man(a1-6)[Man(a1-2)Man(a1-2)Man(a1-3)]Man
# Method in brief: as §1
# [21] = biological target: Man(a1-2)Man(a1-6)[Man(a1-3)]Man(a1-6)[Man(a1-2)Man(a1-2)Man(a1-3)]Man(b1-4)GlcNAc(b1-4)GlcNAc
# Method in brief: as §1
# [22] = biological target: Man(a1-3)[Man(a1-6)]Man
# Method in brief: as §1
# [23] = biological target: Man(a1-3)[Man(a1-6)]Man(a1-6)[Man(a1-2)Man(a1-3)]Man(b1-4)GlcNAc(b1-4)GlcNAc
# Method in brief: as §1
# [24] = biological target: Man(a1-3)[Man(a1-6)]Man(a1-6)[Man(a1-3)]Man
# Method in brief: as §1
# [25] = biological target: Man(a1-3)[Man(a1-6)]Man(a1-6)[Man(a1-3)]Man(b1-4)GlcNAc(b1-4)GlcNAc
# Method in brief: as §1
# [26] = biological target: Man(a1-3)[Man(a1-6)]Man(b1-4)GlcNAc(b1-4)GlcNAc
# Method in brief: as §1
# [27] = biological target: Man(a1-3)[Man(a1-6)]Man(b1-4)GlcNAc(b1-4)[Fuc(a1-6)]GlcNAc
# Method in brief: as §1
# [28] = biological target: Man(a1-6)Man
# Method in brief: as §1
# [29] = biological target: Man(b1-4)GlcNAc
# Method in brief: as §1
# [30] = biological target: MurNAc(b1-4)GlcNAc
# Method in brief: as §1
# [31] = biological target: Neu5Ac(a2-3)Gal
# Method in brief: as §1
# [32] = biological target: Neu5Ac(a2-3)Gal(b1-3)GalNAc
# Method in brief: as §1
# [33] = biological target: Neu5Ac(a2-3)Gal(b1-3)GalNAc(b1-3)Gal(a1-4)Gal(b1-4)Glc
# Method in brief: as §1
# [34] = biological target: Neu5Ac(a2-3)Gal(b1-3)GalNAc(b1-4)[Neu5Ac(a2-3)]Gal(b1-4)Glc
# Method in brief: as §1
# [35] = biological target: Neu5Ac(a2-3)Gal(b1-3)GalNAc(b1-4)[Neu5Ac(a2-8)Neu5Ac(a2-3)]Gal(b1-4)Glc
# Method in brief: as §1
# [36] = biological target: Neu5Ac(a2-3)Gal(b1-3)GalNAc6S
# Method in brief: as §1
# [37] = biological target: Neu5Ac(a2-3)Gal(b1-3)GlcNAc
# Method in brief: as §1
# [38] = biological target: Neu5Ac(a2-3)Gal(b1-3)GlcNAc(b1-2)Man
# Method in brief: as §1
# [39] = biological target: Neu5Ac(a2-3)Gal(b1-3)GlcNAc(b1-2)Man(a1-3)[GlcNAc(b1-4)][Neu5Ac(a2-3)Gal(b1-3)GlcNAc(b1-2)Man(a1-6)]Man(b1-4)GlcNAc(b1-4)GlcNAc
# Method in brief: as §1
# [40] = biological target: Neu5Ac(a2-3)Gal(b1-3)GlcNAc(b1-2)Man(a1-3)[Neu5Ac(a2-3)Gal(b1-3)GlcNAc(b1-2)Man(a1-6)]Man(b1-4)GlcNAc(b1-4)GlcNAc
# Method in brief: as §1
# [41] = biological target: Neu5Ac(a2-3)Gal(b1-3)GlcNAc(b1-3)Gal(b1-3)GlcNAc
# Method in brief: as §1
# [42] = biological target: Neu5Ac(a2-3)Gal(b1-3)GlcNAc(b1-3)Gal(b1-4)GlcNAc
# Method in brief: as §1
# [43] = biological target: Neu5Ac(a2-3)Gal(b1-3)GlcNAc(b1-3)GalNAc
# Method in brief: as §1
# [44] = biological target: Neu5Ac(a2-3)Gal(b1-3)GlcNAc(b1-4)Gal(b1-4)Glc
# Method in brief: as §1
# [45] = biological target: Neu5Ac(a2-3)Gal(b1-3)GlcNAc(b1-6)GalNAc
# Method in brief: as §1
binder,measurement,setting,value
B1,glycan array binding signal (z-score),[1],-0.21
same,glycan array binding signal (z-score),[2],-0.179
same,glycan array binding signal (z-score),[3],-0.248
same,glycan array binding signal (z-score),[4],-0.15
same,glycan array binding signal (z-score),[5],6.85
same,glycan array binding signal (z-score),[6],-0.225
same,glycan array binding signal (z-score),[7],-0.178
same,glycan array binding signal (z-score),[8],-0.198
same,glycan array binding signal (z-score),[9],-0.077
same,glycan array binding signal (z-score),[10],-0.215
same,glycan array binding signal (z-score),[11],-0.248
same,glycan array binding signal (z-score),[12],-0.195
same,glycan array binding signal (z-score),[13],-0.161
same,glycan array binding signal (z-score),[14],-0.215
same,glycan array binding signal (z-score),[15],-0.114
same,glycan array binding signal (z-score),[16],-0.135
same,glycan array binding signal (z-score),[17],-0.224
same,glycan array binding signal (z-score),[18],-0.041
same,glycan array binding signal (z-score),[19],-0.249
same,glycan array binding signal (z-score),[20],-0.183
same,glycan array binding signal (z-score),[21],-0.223
same,glycan array binding signal (z-score),[22],-0.147
same,glycan array binding signal (z-score),[23],-0.006
same,glycan array binding signal (z-score),[24],0.052
same,glycan array binding signal (z-score),[25],-0.288
same,glycan array binding signal (z-score),[26],-0.183
same,glycan array binding signal (z-score),[27],-0.287
same,glycan array binding signal (z-score),[28],-0.18
same,glycan array binding signal (z-score),[29],-0.174
same,glycan array binding signal (z-score),[30],-0.181
same,glycan array binding signal (z-score),[31],-0.115
same,glycan array binding signal (z-score),[32],-0.237
same,glycan array binding signal (z-score),[33],-0.189
same,glycan array binding signal (z-score),[34],-0.18
same,glycan array binding signal (z-score),[35],-0.174
same,glycan array binding signal (z-score),[36],-0.228
same,glycan array binding signal (z-score),[37],-0.254
same,glycan array binding signal (z-score),[38],-0.179
same,glycan array binding signal (z-score),[39],-0.189
same,glycan array binding signal (z-score),[40],-0.154
same,glycan array binding signal (z-score),[41],-0.22
same,glycan array binding signal (z-score),[42],-0.274
same,glycan array binding signal (z-score),[43],-0.123
same,glycan array binding signal (z-score),[44],-0.183
same,glycan array binding signal (z-score),[45],0.635
